# Results published in the supplement of paper PMC8728848.
# Some of the results follow.
# B1: B1257 (Bifidobacterium sp) (protein)
# chain: MKKSIRLVAAIAALAMTAGISACGSSTNGNQAKSDVTAQDVETALTDTSKNVELTVWAYSAKQMEPTVKAFEKKYPHIKINFVNTGAAGDHFTKFQNVVQAQKDIPDVVQMGANKFQQFAVSGALLNFANDSIEKAWSKLYTKTAWAQVHYAGGLYGAPQDATPLANYVRKDILDEHNLQVPESWEDIYNEGIKLHKEDSNKYMGILGSDISFFTNLYRSVGARLWKVNSVDDVELTMNSGKAKEFTEFLQKCLKDGVLEGGTVFTDEFNRSINDGRYATFINENWMGNTYKEQNPSLKGKMVVAAPPSWKGQPYQSSSVGSMMSVSAACPKEKQAAALAFINWLDSDKDAIQSWQDTNNGNFFMAASVYQDDENQRNKKETDGYYANDDVNAVYFDSMDKVNTDWEYLPFMSQVEVVFNDVIVPQMNENGDLVGAMAKAQQELKTYAKDNGFKVTTDAD
# Legend:
# Experiment in all cases: glycan array binding signal (z-score within array); higher = stronger binding
# Conditions in all cases: glycan notation: IUPAC condensed, linker removed
# [1] = biological target: Fuc(a1-3)[Gal3S(b1-4)]GlcNAc6S
# In short: (§1)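 The binding signal is a Z-score computed within each array and averaged over linkers. Arrays of the same protein sequence at different concentrations or buffers were also averaged together. Data originate from 3228 arrays in the Consortium for Functional Glycomics database, kept only where the protein sequence was available.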
# [2] = biological target: Fuc(a1-3)[GalNAc(b1-4)]GlcNAc
# In short: as §1
# [3] = biological target: Fuc(a1-3)[GalNAc(b1-4)]GlcNAc6S
# In short: as §1
# Fuc(a1-4)GlcNAc = biological target: Fuc(a1-4)GlcNAc
# In short: as §1
# Fuc(b1-3)GlcNAc = biological target: Fuc(b1-3)GlcNAc
# In short: as §1
# Gal(a1-2)Gal = biological target: Gal(a1-2)Gal
# In short: as §1
# Gal(a1-3)Gal = biological target: Gal(a1-3)Gal
# In short: as §1
# Gal(a1-3)Gal(b1-3)GlcNAc = biological target: Gal(a1-3)Gal(b1-3)GlcNAc
# In short: as §1
# [4] = biological target: Gal(a1-3)Gal(b1-3)GlcNAc(b1-2)Man
# In short: as §1
# [5] = biological target: Gal(a1-3)Gal(b1-3)GlcNAc(b1-2)Man(a1-3)[Gal(a1-3)Gal(b1-3)GlcNAc(b1-2)Man(a1-6)]Man(b1-4)GlcNAc(b1-4)GlcNAc
# In short: as §1
# [6] = biological target: Gal(a1-3)Gal(b1-3)GlcNAc(b1-3)GalNAc
# In short: as §1
# [7] = biological target: Gal(a1-3)Gal(b1-3)GlcNAc(b1-6)GalNAc
# In short: as §1
# [8] = biological target: Gal(a1-3)Gal(b1-3)[Fuc(a1-4)]GlcNAc(b1-2)Man(a1-3)[Gal(a1-3)Gal(b1-3)[Fuc(a1-4)]GlcNAc(b1-2)Man(a1-6)]Man(b1-4)GlcNAc(b1-4)GlcNAc
# In short: as §1
# Gal(a1-3)Gal(b1-4)Glc = biological target: Gal(a1-3)Gal(b1-4)Glc
# In short: as §1
# Gal(a1-3)Gal(b1-4)GlcNAc = biological target: Gal(a1-3)Gal(b1-4)GlcNAc
# In short: as §1
# [9] = biological target: Gal(a1-3)Gal(b1-4)GlcNAc(b1-2)Man
# In short: as §1
# [10] = biological target: Gal(a1-3)Gal(b1-4)GlcNAc(b1-2)Man(a1-3)[Gal(a1-3)Gal(b1-4)GlcNAc(b1-2)Man(a1-6)]Man(b1-4)GlcNAc(b1-4)GlcNAc
# In short: as §1
# [11] = biological target: Gal(a1-3)Gal(b1-4)GlcNAc(b1-3)GalNAc
# In short: as §1
# [12] = biological target: Gal(a1-3)Gal(b1-4)GlcNAc(b1-6)GalNAc
# In short: as §1
# [13] = biological target: Gal(a1-3)Gal(b1-4)[Fuc(a1-3)]GlcNAc
# In short: as §1
# [14] = biological target: Gal(a1-3)Gal(b1-4)[Fuc(a1-3)]GlcNAc(b1-2)Man(a1-3)[Gal(a1-3)Gal(b1-4)[Fuc(a1-3)]GlcNAc(b1-2)Man(a1-6)]Man(b1-4)GlcNAc(b1-4)GlcNAc
# In short: as §1
# Gal(a1-3)GalNAc = biological target: Gal(a1-3)GalNAc
# In short: as §1
# [15] = biological target: Gal(a1-3)[Gal(a1-4)]Gal(b1-4)GlcNAc
# In short: as §1
# [16] = biological target: Gal(a1-4)Gal(b1-3)GlcNAc(b1-2)Man(a1-3)[Gal(a1-4)Gal(b1-3)GlcNAc(b1-2)Man(a1-6)]Man(b1-4)GlcNAc(b1-4)GlcNAc
# In short: as §1
# Gal(a1-4)Gal(b1-4)Glc = biological target: Gal(a1-4)Gal(b1-4)Glc
# In short: as §1
# Gal(a1-4)Gal(b1-4)GlcNAc = biological target: Gal(a1-4)Gal(b1-4)GlcNAc
# In short: as §1
# [17] = biological target: Gal(a1-4)Gal(b1-4)GlcNAc(b1-2)Man(a1-3)[Gal(a1-4)Gal(b1-4)GlcNAc(b1-2)Man(a1-6)]Man(b1-4)GlcNAc(b1-4)GlcNAc
# In short: as §1
# [18] = biological target: Gal(a1-4)Gal(b1-4)GlcNAc(b1-3)Gal(b1-4)Glc
# In short: as §1
# Gal(a1-4)GlcNAc = biological target: Gal(a1-4)GlcNAc
# In short: as §1
# Gal(a1-6)Glc = biological target: Gal(a1-6)Glc
# In short: as §1
# Gal(b1-2)Gal = biological target: Gal(b1-2)Gal
# In short: as §1
# Gal(b1-3)Gal = biological target: Gal(b1-3)Gal
# In short: as §1
# Gal(b1-3)Gal(b1-4)GlcNAc = biological target: Gal(b1-3)Gal(b1-4)GlcNAc
# In short: as §1
# Gal(b1-3)GalNAc = biological target: Gal(b1-3)GalNAc
# In short: as §1
# [19] = biological target: Gal(b1-3)GalNAc(a1-3)[Fuc(a1-2)]Gal(b1-4)Glc
# In short: as §1
# [20] = biological target: Gal(b1-3)GalNAc(a1-3)[Fuc(a1-2)]Gal(b1-4)GlcNAc
# In short: as §1
# Gal(b1-3)GalNAc(b1-3)Gal = biological target: Gal(b1-3)GalNAc(b1-3)Gal
# In short: as §1
# [21] = biological target: Gal(b1-3)GalNAc(b1-3)Gal(a1-4)Gal(b1-4)Glc
# In short: as §1
# [22] = biological target: Gal(b1-3)GalNAc(b1-4)Gal(b1-4)Glc
# In short: as §1
# [23] = biological target: Gal(b1-3)GalNAc(b1-4)[Neu5Ac(a2-3)]Gal(b1-4)Glc
# In short: as §1
# Gal(b1-3)GlcNAc = biological target: Gal(b1-3)GlcNAc
# In short: as §1
# [24] = biological target: Gal(b1-3)GlcNAc(a1-3)Gal(b1-4)GlcNAc
# In short: as §1
# [25] = biological target: Gal(b1-3)GlcNAc(a1-6)Gal(b1-4)GlcNAc
# In short: as §1
# Gal(b1-3)GlcNAc(b1-2)Man = biological target: Gal(b1-3)GlcNAc(b1-2)Man
# In short: as §1
# [26] = biological target: Gal(b1-3)GlcNAc(b1-2)Man(a1-3)[Gal(b1-3)GlcNAc(b1-2)Man(a1-6)]Man(b1-4)GlcNAc(b1-4)GlcNAc
# In short: as §1
binder,measurement,setting,value
B1,glycan array binding signal (z-score),[1],0.008
same,glycan array binding signal (z-score),[2],0.046
same,glycan array binding signal (z-score),[3],-0.052
same,glycan array binding signal (z-score),Fuc(a1-4)GlcNAc,-0.062
same,glycan array binding signal (z-score),Fuc(b1-3)GlcNAc,-0.081
same,glycan array binding signal (z-score),Gal(a1-2)Gal,0.014
same,glycan array binding signal (z-score),Gal(a1-3)Gal,0.105
same,glycan array binding signal (z-score),Gal(a1-3)Gal(b1-3)GlcNAc,-0.093
same,glycan array binding signal (z-score),[4],0.005
same,glycan array binding signal (z-score),[5],0.027
same,glycan array binding signal (z-score),[6],-0.082
same,glycan array binding signal (z-score),[7],-0.182
same,glycan array binding signal (z-score),[8],0.147
same,glycan array binding signal (z-score),Gal(a1-3)Gal(b1-4)Glc,0.064
same,glycan array binding signal (z-score),Gal(a1-3)Gal(b1-4)GlcNAc,-0.015
same,glycan array binding signal (z-score),[9],-0.066
same,glycan array binding signal (z-score),[10],-0.023
same,glycan array binding signal (z-score),[11],-0.017
same,glycan array binding signal (z-score),[12],-0.213
same,glycan array binding signal (z-score),[13],-0.074
same,glycan array binding signal (z-score),[14],0.147
same,glycan array binding signal (z-score),Gal(a1-3)GalNAc,-0.077
same,glycan array binding signal (z-score),[15],-0.051
same,glycan array binding signal (z-score),[16],0.186
same,glycan array binding signal (z-score),Gal(a1-4)Gal(b1-4)Glc,-0.023
same,glycan array binding signal (z-score),Gal(a1-4)Gal(b1-4)GlcNAc,0.007
same,glycan array binding signal (z-score),[17],0.48
same,glycan array binding signal (z-score),[18],-0.183
same,glycan array binding signal (z-score),Gal(a1-4)GlcNAc,-0.131
same,glycan array binding signal (z-score),Gal(a1-6)Glc,-0.196
same,glycan array binding signal (z-score),Gal(b1-2)Gal,-0.153
same,glycan array binding signal (z-score),Gal(b1-3)Gal,-0.09
same,glycan array binding signal (z-score),Gal(b1-3)Gal(b1-4)GlcNAc,0.064
same,glycan array binding signal (z-score),Gal(b1-3)GalNAc,0.28
same,glycan array binding signal (z-score),[19],0.314
same,glycan array binding signal (z-score),[20],-0.014
same,glycan array binding signal (z-score),Gal(b1-3)GalNAc(b1-3)Gal,-0.134
same,glycan array binding signal (z-score),[21],-0.109
same,glycan array binding signal (z-score),[22],-0.085
same,glycan array binding signal (z-score),[23],-0.22
same,glycan array binding signal (z-score),Gal(b1-3)GlcNAc,0.009
same,glycan array binding signal (z-score),[24],-0.124
same,glycan array binding signal (z-score),[25],-0.081
same,glycan array binding signal (z-score),Gal(b1-3)GlcNAc(b1-2)Man,0.018
same,glycan array binding signal (z-score),[26],-0.095
